Results: PubChem BioAssay AID1508623 (National Center for Advancing Translational Sciences (NCATS), 2021)
In all, about 48,000 compounds went through this assay and about 450 (0.94%) were called active. Another 19% or so got no clear call; they are omitted. The call rests on the fitted dose curve; in most records, active means well fitted inhibition curve with a large enough effect; inconclusive means small, poorly fitted or top-dose-only effect; inactive means no such curve, though single readings can be large or run the other way. The list shows a part of the results.

test: Primary qHTS for Identification of Small Molecule Inhibitors of Huntingtin Promoter Activity; settings: HEK293 HTT promoter firefly luciferase reporter (activity 0% = vehicle and -100% = no light), 24 h; series mostly up to 57.5 µM; activity change, negative = inhibition: at the top concentration; further: nearly all actives have a fitted effect of over 50% in size
Summary of the method: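 HEK293 cells carrying firefly luciferase reporters were seeded at 2,500 per well in Opti-MEM and cultured for 24 h. They were then treated with compounds at up to 57.5 uM final for 24 h at 37 degrees C before Dual-Glo luminescence readout.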
Potency means the concentration at half of the fitted maximal effect.

Structure (SMILES)	activity change, negative = inhibition	Potency
N#Cc1nc(-c2ccc(COc3ccccc3)o2)oc1N1CCN(c2ccccc2)CC1	inactive: -4.46%	–
CCc1ccc(CNC(=O)c2cnc3sc(N4CCOCC4)nn3c2=O)cc1	inactive: -3.12%	–
Cc1cccc(OC(=O)c2cc(-c3ccc(C)c(C)c3)on2)c1	inactive: -3.77%	–
COc1ccc(Cl)cc1NC(=O)N1CCN(Cc2cc(=O)n3nc(-c4ccccc4)sc3n2)CC1	inactive: -7.34%	–
NC1=NC(c2cccc(Cl)c2)n2c(nc3ccccc32)N1 (centres undefined)	inactive: 12.4%	–
CCCS(=O)(=O)Nc1cccc(-c2cn3ccc(C)cc3n2)c1	inactive: 31.6%	–
CCOc1ccc2c(c1)c(=O)c(S(=O)(=O)c1ccc(F)cc1)cn2CC(=O)Nc1ccccc1C	inactive: -20.1%	–
CCOC(=O)c1cnn(-c2ccc(C(=O)Nc3ccc(C(C)=O)cc3)cc2)c1N	inactive: -7.12%	–
CCOC(=O)c1c(S(=O)(=O)N2CCCC(C(=O)NCc3cccc(C)c3)C2)c(C)n(C)c1C (centres undefined)	inactive: -2.34%	–
COc1cc2cc(CNc3ccccc3)c(=O)n(CC(=O)Nc3ccc(C)c(Cl)c3)c2cc1OC	inactive: -22.8%	–
COCCN(Cc1ccco1)C(=O)c1cc2c(=O)[nH]c3ccc(C)cc3c2s1	inactive: 5.68%	–
COC(=O)c1ccc(NC(=O)CCCC(=O)OCC(=O)c2ccc(Cl)cc2)cc1	inactive: -2.07%	–
Cc1ccc(-c2noc(-c3ccc(N4CCN(C)CC4)c([N+](=O)[O-])c3)n2)cc1	inactive: -19.6%	–
O=C(COc1ccccc1)NCC(c1ccc(Cl)cc1)N1CCOCC1 (centres undefined)	inactive: -24.8%	–
Cc1ccc(NC(=O)c2oc3ccc4c(c3c2C)C(=O)CC(C)(C)O4)c(C)c1	inactive: -19.5%	–
COc1ccc(CCNC(=O)c2cccc(Nc3nc4ccccc4nc3-n3nc(C)cc3C)c2)cc1OC	inactive: -11.4%	–
O=C(CSc1n[nH]c(-c2ccc(F)cc2)n1)NCc1ccccc1Cl	inactive: -23.9%	–
COc1ccc(C2C=C(c3ccc(Cl)cc3)Nc3nc(-c4ccc(Cl)cc4)nn32)cc1 (centres undefined)	–	active: 25.1 µM
Cn1ncc2c(N3CCN(c4ccccc4F)CC3)ncnc21	inactive: -25.1%	–
COc1ccc(C)cc1NC(=O)Nc1cccc(OCc2cc(=O)n3ccc(C)cc3n2)c1	inactive: 14%	–
CCOc1ccc(/C=C/c2nc(C#N)c(NC(C)c3ccccc3)o2)cc1 (centres undefined)	inactive: -3.48%	–
Cc1ccccc1OCC(=O)NCC(c1ccc(Cl)cc1)N1CCCCC1 (centres undefined)	inactive: -31.3%	–
CCOC(=O)c1ccc(-n2c(CCC(=O)O)ccc2-c2ccccc2)cc1	inactive: 5.36%	–
COc1cccc(C(=O)N2c3ncnn3C3(CCCCC3)[C@@H]3CCCC[C@@H]32)c1	inactive: -24.5%	–

Structure (SMILES)	activity change, negative = inhibition	Potency
COc1ccc(N2CCN(S(=O)(=O)c3ccc(-c4ccno4)cc3OC)CC2)cc1	inactive: 4.98%	–
CCc1cccc(C)c1NC(=O)CN1C(=O)C2(SCC(=O)N2c2cccc(F)c2)c2ccccc21 (centres undefined)	inactive: -19.9%	–
COc1ccc(OC)c(Nc2sc(C(=O)c3ccccc3)c(N)c2S(=O)(=O)c2ccccc2)c1	inactive: -18%	–
COc1ccc(C(=O)COC(=O)c2cc(-c3cccs3)nc3ccccc23)cc1	inactive: 15.9%	–
O=c1oc2ccccc2c(N2CCN(c3ccc(F)cc3)CC2)c1CN1CCCC1	inactive: -8.07%	–
O=C(Cn1ncc2c([nH]c3ccccc32)c1=O)NCCCN1CCN(c2ccccc2)CC1	inactive: -22.4%	–
Cc1ccccc1NC(=O)Cn1c(=O)n(CCc2ccccc2)c(=O)c2ccccc21	inactive: -0.988%	–
CCc1nn2c(=O)cc(COC(=O)c3ccccc3NC(=O)COc3ccc(C)c(C)c3)nc2s1	inactive: -15.5%	–
CC(C(=O)Nc1ccc(OC(F)(F)F)cc1)N1Cc2ccccc2C1=O (centres undefined)	inactive: -29.6%	–
CCCCn1cc(S(=O)(=O)c2cc(C)ccc2C)c(=O)c2cc(F)c(F)cc21	inactive: -22.6%	–
CCOC(=O)c1cccc(NC(=O)c2oc3c(c2C)-c2nn(CC)cc2CC3)c1	inactive: 22.3%	–
Cc1c(Cl)cccc1-n1ncc(C(=O)NC2CCCCC2)c1C1CCN(C(=O)OC(C)(C)C)CC1	inactive: -17.1%	–
COc1ccc(Br)cc1[C@@H]1Nc2ccc(C(=O)O)cc2[C@@H]2C=CC[C@@H]21	inactive: -16.9%	–
CCOc1ccc(CCNC(=O)CSc2nnnn2-c2ccccc2)cc1OCC	inactive: -14%	–
C#CCn1c(=O)n(-c2cccc(Cl)c2C)c(=O)c2c3c(sc21)CN(C(C)=O)CC3	inactive: 3.58%	–
Cc1ccc(C)c(N2CCN(CCCNC(=O)c3cnn(-c4ccc(F)cc4)c3C3CCN(C(=O)OC(C)(C)C)CC3)CC2)c1	inactive: -3.34%	–
CC(C)C(=O)Nc1nc2c(s1)CC(C(C)(C)C)CC2 (centres undefined)	inactive: -5.99%	–
CCOc1ccc(CNC(=O)Cn2nc(C)c3c(C)n(-c4ccc(C)cc4)nc3c2=O)cc1	inactive: -26%	–
O=C(CCS(=O)(=O)c1ccccc1)N(Cc1cccnc1)c1nc2ccc(F)cc2s1	inactive: 12.6%	–
CC(=O)c1ccc(-n2c(CCC(=O)O)ccc2-c2cccs2)cc1	inactive: -1.42%	–
Cc1ccc(C)c(CSc2nnc(C)n3c2cc2sccc23)c1	inactive: -22.5%	–
O=C(Cn1c(=O)nc(-c2ccccc2)c2ccccc21)N1CCN(c2ccc(F)cc2)CC1	inactive: -8.26%	–
O=C(CS(=O)(=O)c1cccc2nsnc12)NCc1ccccc1	inactive: -9.62%	–
Cc1noc(/C=C/c2ccccc2F)c1S(=O)(=O)N1CCC(C(=O)NCC(C)c2ccccc2)CC1 (centres undefined)	inactive: -15.9%	–

Structure (SMILES)	activity change, negative = inhibition	Potency
COc1cc(NC(=O)C(Cc2ccccc2)NS(=O)(=O)c2cccs2)cc(OC)c1 (centres undefined)	inactive: -32.7%	–
CC(C)Oc1ccccc1NC(=O)CSc1nccn1C	inactive: -11.6% [at 11.5 µM]	–
O=C(O)CSc1nc2ccc(NC(=O)COc3ccc(Cl)cc3)cc2s1	inactive: -6.22%	–
Cc1ccc(-n2c(=O)c3c(c4cc(C)ccc4n3C)n(CC(=O)c3ccc(Cl)cc3)c2=O)cc1	inactive: -5.58%	–
Cc1ccc(NC(=O)c2ccc(CN3CC(=O)N4CCCCC4C3=O)cc2)c(C)c1 (centres undefined)	inactive: -16.7%	–
COC(=O)c1ccc(NC(=O)CSc2nnc3c4ccccc4n(C(C)C)c3n2)cc1	inactive: 8.85%	–
CCOc1cccc(C(=O)Nc2cc(C)c(O)c(-c3nc4ncccc4o3)c2)c1	inactive: -18.8%	–
COc1cccc(Cc2nc3ccccc3nc2SCC(=O)N2CCCc3ccccc32)c1	inactive: -1.84%	–
COc1ccc(CNC(=O)CC(c2ccc(OC)cc2)N2Cc3ccccc3C2=O)cc1 (centres undefined)	inactive: -13.6%	–
CCOC(=O)c1c(NC(=O)c2cc(=O)c3cc(C)cc(C)c3o2)sc(C)c1C	inactive: 13.8%	–
Cc1ccc(-c2nn(CC(=O)NCc3ccccc3)c3c2cnc2ccc(F)cc23)cc1C	inactive: 35.7%	–
COc1ccc(OC)c(-n2c3c(cc(-c4nc(-c5ccc(Cl)cc5)cs4)c2=O)C(=O)CC(C)(C)C3)c1	inactive: -10.9%	–
CCCNC(=O)CN1C(=O)COc2ccc(S(=O)(=O)N3CCC(C)CC3)cc21	inactive: -4.05%	–
COc1ccccc1CNC(=O)CSc1ccc(-c2sc(-c3ccccc3)nc2C)nn1	inactive: -0.629%	–
CCC(=O)N1CCc2cc(S(=O)(=O)NC(Cc3ccccc3)C(=O)Nc3ccccc3C)ccc21 (centres undefined)	inactive: -20.5%	–
CC(=O)c1cccc(NS(=O)(=O)c2cc3c(cc2C)n(C)c(=O)c(=O)n3C)c1	inactive: 0.136%	–
Cc1cccc(NC(=O)C(=O)NCC(c2ccc3c(c2)OCO3)N2CCN(c3ccccc3)CC2)c1 (centres undefined)	inactive: -10.5%	–
CC(C(=O)O)c1ccc(/C=C2\CCCCC2=O)cc1 (centres undefined)	inactive: 16.4%	–
O=C(Nc1sc2c(c1C(=O)Nc1ccccc1)CCC2)c1ccc(Br)cc1	inactive: -8.47%	–
CCOCCCNC(=O)C(c1ccccc1)N1Cc2ccccc2C1=O (centres undefined)	inactive: -8.75%	–
Cc1cccc(N2CCN(Cc3cc(=O)oc4cc(C)ccc34)CC2C)c1 (centres undefined)	inactive: -1.49%	–
CC(C)c1ccc(CNc2nc(-c3ccco3)nn2S(=O)(=O)c2ccc(F)cc2)cc1	inactive: -5.3%	–
Cc1ccccc1N1CC(c2nnc(NC(=O)c3ccco3)s2)CC1=O (centres undefined)	inactive: -10.2%	–
Cc1cccc(NC(=O)N2CCC(N3CCN(Cc4ccccc4)C(=O)C3=O)CC2)c1C	inactive: -2.42%	–

Structure (SMILES)	activity change, negative = inhibition	Potency
O=C(c1cc(-c2ccc(F)cc2)on1)N1CCN(c2ccc(F)cc2)CC1	inactive: -4.56%	–
CCCCNS(=O)(=O)c1ccc2nc(-c3cccnc3)cc(C(=O)NC(C)C)c2c1	inactive: -31.6%	–
Cn1nc(C(=O)N2CCN(c3ccccc3F)CC2)c2c1-c1ccccc1S(=O)(=O)C2	inactive: 12.6%	–
O=C(CN1C(=O)c2cccc3cccc1c23)Nc1ccccc1Br	inactive: -12.4%	–
CCCC1N=C2c3ccccc3N=C(SCC(=O)NCCc3ccc(Cl)cc3)N2C1=O (centres undefined)	inactive: -3.04%	–
CCOC(=O)c1ccccc1NC(=O)c1cc2ccc3cccnc3c2[nH]1	inactive: 10.9%	–
CCCOC(=O)CSc1nnc(-c2ccccc2)o1	inactive: -7.34%	–
CC(C)NC(=O)c1ccc2c(c1)nc1n2CCCCC1	inactive: 71.4%	–
CCOC(=O)COc1ccc(C)cc1C(=O)c1ccn2nc(-c3ccc(Cl)cc3)cc2n1	inactive: -12%	–
Cc1ccc(Nc2nc3ccc(C(=O)c4ccccc4)cc3n3c(C)nnc23)c(C)c1	inactive: 13.8%	–
Cc1sc2ncn(CC(=O)N(C)c3ccc(C(C)C)cc3)c(=O)c2c1S(=O)(=O)N1CCC(C)CC1	inactive: -20%	–
COc1ccc(-c2noc(CC(=O)Nc3cc(OC)ccc3OC)n2)cc1	inactive: -25%	–
CC1CCC(NC(=O)C2(C)Cc3ccccc3C(=O)N2Cc2ccc(Cl)cc2)CC1 (centres undefined)	inactive: -28.1%	–
CCCn1c(=O)c2sccc2n2c(CCCC(=O)N3CCN(c4cccc(Cl)c4)CC3)nnc12	inactive: -12.4%	–
CC(=O)c1cccc(NC(=O)CN2C(=O)CC(c3ccc(C)cc3C)=Nc3ccccc32)c1	inactive: -11.2%	–
O=C(/C=C/c1ccc(Cl)cc1)N1CCC(c2nc3ccccc3o2)CC1	inactive: 25.6%	–
CCCCN(CC)CCCNC(=O)c1cn(CC)c2ccc(S(=O)(=O)N3CCc4ccccc4C3)cc2c1=O	inactive: -8.83%	–
CCc1cc2c(cc3c(=O)n(CC(=O)N4CCN(c5cccc(C)c5C)CC4)nc(CC)n32)s1	inactive: -9.06%	–
COc1ccc(CCNCc2c(C(=O)O)c(C)n(Cc3cccc(Cl)c3)c2C)c(OC)c1OC	inactive: -11.1%	–
O=C(Cn1cc(C(=O)c2ccccc2)c(=O)c2cc3c(cc21)OCCO3)Nc1ccc(F)c(F)c1	inactive: -34.4%	–
COc1ccc(CCNC(=O)c2cc3c(=O)n(C)c4ccccc4c3s2)cc1OC	inactive: -16%	–
O=C(Cn1cc(S(=O)(=O)Cc2ccccc2Cl)c2ccccc21)NCCc1ccccc1	inactive: -14.8%	–
